Test results from the supplement of paper PMC12015411.
Bacterial growth in Mueller-Hinton broth at 37 °C with the drug at the dose given, alone or with nitroxoline. Checkerboards on E. coli BW25113: OD600 at the end of exponential growth as a fraction of no-drug wells. Colistin series: OD595 at 10.75 h as a fraction of the colistin-free well. 1 = full growth, lower = more inhibition. No active / inactive call per well. Checkerboard doses stop near each drug's IC75, and their values pile up at 1, as if capped there. Colistin and gentamicin are mixtures; one drawing stands for each.

Tested on: Escherichia coli BW25113
Test: growth relative to no-drug wells (fraction of no-drug control); higher = more growth, less inhibition
Protocol: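 8 x 8 checkerboard in cation-adjusted Mueller-Hinton broth at 37 °C; OD600 at the end of exponential growth as a fraction of no-drug wells, two biological replicates.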

Oc1cccc2cccnc12 [8-Hydroxyquinoline]
nitroxoline concentration 0 µg/ml
Conditions | growth
0.125 µg/ml | 0.93714
0.215 µg/ml | 0.993
0.25 µg/ml | 0.973
0.43 µg/ml | 0.92
0.5 µg/ml | 0.9318
0.86 µg/ml | 0.896
1 µg/ml | 0.859

Oc1cccc2cccnc12 [8-Hydroxyquinoline] + Oc1ccc([N+](=O)[O-])c2cccnc12 [nitroxoline]
growth
Conditions | nitroxoline concentration 0.136 µg/ml | nitroxoline concentration 0.255 µg/ml | nitroxoline concentration 0.374 µg/ml | nitroxoline concentration 0.493 µg/ml | nitroxoline concentration 0.612 µg/ml | nitroxoline concentration 0.731 µg/ml | nitroxoline concentration 0.85 µg/ml
0.125 µg/ml | 1 | 1 | 0.919 | 0.624 | 0.556 | 0.372 | 0.295
0.215 µg/ml | 1 | 0.987 | 0.687 | 0.514 | 0.438 | 0.351 | 0.211
0.25 µg/ml | 1 | 0.968 | 0.639 | 0.529 | 0.379 | 0.248 | 0.203
0.43 µg/ml | 1 | 0.854 | 0.668 | 0.535 | 0.337 | 0.208 | 0.176
0.5 µg/ml | 1 | 0.905 | 0.684 | 0.461 | 0.42 | 0.215 | 0.175
0.86 µg/ml | 0.9962 | 0.72 | 0.518 | 0.362 | 0.279 | 0.224 | 0.13
1 µg/ml | 0.96 | 0.69 | 0.483 | 0.252 | 0.259 | 0.161 | 0.114

NCC[C@H](O)C(=O)N[C@@H]1C[C@H](N)[C@@H](O[C@H]2O[C@H](CN)[C@@H](O)[C@H](O)[C@H]2O)[C@H](O)[C@H]1O[C@H]1O[C@H](CO)[C@@H](O)[C@H](N)[C@H]1O [Amikacin]
nitroxoline concentration 0 µg/ml
Conditions | growth
0.025 µg/ml | 0.934
0.043 µg/ml | 0.975
0.05 µg/ml | 0.9609
0.086 µg/ml | 0.9419
0.1 µg/ml | 0.846
0.172 µg/ml | 0.775
0.2 µg/ml | 0.82

NCC[C@H](O)C(=O)N[C@@H]1C[C@H](N)[C@@H](O[C@H]2O[C@H](CN)[C@@H](O)[C@H](O)[C@H]2O)[C@H](O)[C@H]1O[C@H]1O[C@H](CO)[C@@H](O)[C@H](N)[C@H]1O [Amikacin] + Oc1ccc([N+](=O)[O-])c2cccnc12 [nitroxoline]
growth
Conditions | nitroxoline concentration 0.136 µg/ml | nitroxoline concentration 0.255 µg/ml | nitroxoline concentration 0.374 µg/ml | nitroxoline concentration 0.493 µg/ml | nitroxoline concentration 0.612 µg/ml | nitroxoline concentration 0.731 µg/ml | nitroxoline concentration 0.85 µg/ml
0.025 µg/ml | 1 | 1 | 0.872 | 0.723 | 0.641 | 0.528 | 0.476
0.043 µg/ml | 1 | 1 | 0.946 | 0.724 | 0.609 | 0.517 | 0.472
0.05 µg/ml | 1 | 0.986 | 1 | 0.7729 | 0.623 | 0.531 | 0.508
0.086 µg/ml | 1 | 0.9955 | 0.955 | 0.758 | 0.681 | 0.531 | 0.473
0.1 µg/ml | 0.9805 | 1 | 0.947 | 0.827 | 0.672 | 0.554 | 0.5249
0.172 µg/ml | 0.7878 | 0.796 | 0.763 | 0.732 | 0.584 | 0.496 | 0.434
0.2 µg/ml | 0.759 | 0.76 | 0.686 | 0.504 | 0.519 | 0.427 | 0.439

CC[C@H]1OC(=O)[C@H](C)[C@@H](O[C@H]2C[C@@](C)(OC)[C@@H](O)[C@H](C)O2)[C@H](C)[C@@H](O[C@@H]2O[C@H](C)C[C@H](N(C)C)[C@H]2O)[C@](C)(O)C[C@@H](C)CN(C)[C@H](C)[C@@H](O)[C@]1(C)O [Azithromycin]
nitroxoline concentration 0 µg/ml
Conditions | growth
0.0718 µg/ml | 1
0.1349 µg/ml | 1
0.1979 µg/ml | 0.913
0.2609 µg/ml | 0.901
0.3239 µg/ml | 0.819
0.387 µg/ml | 0.718
0.45 µg/ml | 0.719

CC[C@H]1OC(=O)[C@H](C)[C@@H](O[C@H]2C[C@@](C)(OC)[C@@H](O)[C@H](C)O2)[C@H](C)[C@@H](O[C@@H]2O[C@H](C)C[C@H](N(C)C)[C@H]2O)[C@](C)(O)C[C@@H](C)CN(C)[C@H](C)[C@@H](O)[C@]1(C)O [Azithromycin] + Oc1ccc([N+](=O)[O-])c2cccnc12 [nitroxoline]
growth
Conditions | nitroxoline concentration 0.12 µg/ml | nitroxoline concentration 0.225 µg/ml | nitroxoline concentration 0.33 µg/ml | nitroxoline concentration 0.435 µg/ml | nitroxoline concentration 0.54 µg/ml | nitroxoline concentration 0.645 µg/ml | nitroxoline concentration 0.75 µg/ml
0.0718 µg/ml | 1 | 0.949 | 0.972 | 1 | 0.986 | 0.815 | 0.556
0.1349 µg/ml | 0.982 | 0.848 | 0.9136 | 0.963 | 0.936 | 0.676 | 0.563
0.1979 µg/ml | 0.883 | 0.875 | 0.877 | 0.767 | 0.798 | 0.534 | 0.461
0.2609 µg/ml | 0.839 | 0.759 | 0.773 | 0.883 | 0.685 | 0.453 | 0.335
0.3239 µg/ml | 0.802 | 0.791 | 0.67 | 0.742 | 0.643 | 0.312 | 0.233
0.387 µg/ml | 0.731 | 0.64 | 0.694 | 0.619 | 0.63 | 0.216 | 0.129
0.45 µg/ml | 0.6802 | 0.616 | 0.585 | 0.605 | 0.637 | 0.166 | 0.0931

C[C@H]1[C@H](NC(=O)/C(=N\OC(C)(C)C(=O)O)c2csc(N)n2)C(=O)N1S(=O)(=O)O [Aztreonam]
nitroxoline concentration 0 µg/ml
Conditions | growth
0.008 µg/ml | 0.957
0.015 µg/ml | 0.93
0.022 µg/ml | 0.904
0.029 µg/ml | 0.113
0.036 µg/ml | 0.0147
0.043 µg/ml | 0.0178
0.05 µg/ml | 0.00857

C[C@H]1[C@H](NC(=O)/C(=N\OC(C)(C)C(=O)O)c2csc(N)n2)C(=O)N1S(=O)(=O)O [Aztreonam] + Oc1ccc([N+](=O)[O-])c2cccnc12 [nitroxoline]
growth
Conditions | nitroxoline concentration 0.072 µg/ml | nitroxoline concentration 0.135 µg/ml | nitroxoline concentration 0.198 µg/ml | nitroxoline concentration 0.261 µg/ml | nitroxoline concentration 0.324 µg/ml | nitroxoline concentration 0.387 µg/ml | nitroxoline concentration 0.45 µg/ml
0.008 µg/ml | 0.982 | 0.974 | 0.936 | 0.877 | 0.87 | 0.796 | 0.638
0.015 µg/ml | 0.958 | 0.93 | 0.941 | 0.892 | 0.869 | 0.784 | 0.651
0.022 µg/ml | 0.88 | 0.887 | 0.884 | 0.87 | 0.821 | 0.836 | 0.604
0.029 µg/ml | 0.746 | 0.634 | 0.85 | 0.926 | 0.86 | 0.807 | 0.639
0.036 µg/ml | 0.287 | 0.465 | 0.657 | 0.762 | 0.769 | 0.727 | 0.562
0.043 µg/ml | 0.0476 | 0.0868 | 0.193 | 0.492 | 0.529 | 0.498 | 0.44
0.05 µg/ml | 0.0152 | 0.0431 | 0.0544 | 0.0682 | 0.127 | 0.212 | 0.19

CO/N=C(\C(=O)N[C@@H]1C(=O)N2C(C(=O)[O-])=C(C[N+]3(C)CCCC3)CS[C@H]12)c1csc(N)n1 [Cefepime]
nitroxoline concentration 0 µg/ml
Conditions | growth
0.004 µg/ml | 0.984
0.0075 µg/ml | 0.96
0.011 µg/ml | 0.969
0.0145 µg/ml | 0.888
0.018 µg/ml | 0.589
0.0215 µg/ml | 0.484
0.025 µg/ml | 0.135

CO/N=C(\C(=O)N[C@@H]1C(=O)N2C(C(=O)[O-])=C(C[N+]3(C)CCCC3)CS[C@H]12)c1csc(N)n1 [Cefepime] + Oc1ccc([N+](=O)[O-])c2cccnc12 [nitroxoline]
growth
Conditions | nitroxoline concentration 0.12 µg/ml | nitroxoline concentration 0.225 µg/ml | nitroxoline concentration 0.33 µg/ml | nitroxoline concentration 0.435 µg/ml | nitroxoline concentration 0.54 µg/ml | nitroxoline concentration 0.645 µg/ml | nitroxoline concentration 0.75 µg/ml
0.004 µg/ml | 0.887 | 0.774 | 0.776 | 0.596 | 0.628 | 0.617 | 0.565
0.0075 µg/ml | 0.854 | 0.757 | 0.73 | 0.618 | 0.667 | 0.605 | 0.565
0.011 µg/ml | 0.912 | 0.843 | 0.781 | 0.716 | 0.66 | 0.626 | 0.558
0.0145 µg/ml | 0.841 | 0.787 | 0.707 | 0.74965 | 0.627 | 0.589 | 0.573
0.018 µg/ml | 0.73 | 0.726 | 0.717 | 0.706 | 0.673 | 0.613 | 0.521
0.0215 µg/ml | 0.492 | 0.57 | 0.663 | 0.651 | 0.629 | 0.587 | 0.557
0.025 µg/ml | 0.22 | 0.4275 | 0.436 | 0.606 | 0.628 | 0.608 | 0.569

CC(C)(O/N=C(\C(=O)N[C@@H]1C(=O)N2C(C(=O)[O-])=C(C[n+]3ccccc3)CS[C@H]12)c1csc(N)n1)C(=O)O [Ceftazidime]
nitroxoline concentration 0 µg/ml
Conditions | growth
0.0094 µg/ml | 0.983
0.016 µg/ml | 0.985
0.0187 µg/ml | 0.9932
0.032 µg/ml | 1
0.0375 µg/ml | 0.9988
0.064 µg/ml | 0.943
0.075 µg/ml | 0.939

CC(C)(O/N=C(\C(=O)N[C@@H]1C(=O)N2C(C(=O)[O-])=C(C[n+]3ccccc3)CS[C@H]12)c1csc(N)n1)C(=O)O [Ceftazidime] + Oc1ccc([N+](=O)[O-])c2cccnc12 [nitroxoline]
growth
Conditions | nitroxoline concentration 0.136 µg/ml | nitroxoline concentration 0.255 µg/ml | nitroxoline concentration 0.374 µg/ml | nitroxoline concentration 0.493 µg/ml | nitroxoline concentration 0.612 µg/ml | nitroxoline concentration 0.731 µg/ml | nitroxoline concentration 0.85 µg/ml
0.0094 µg/ml | 1 | 1 | 0.88 | 0.709 | 0.61 | 0.514 | 0.498
0.016 µg/ml | 1 | 1 | 0.929 | 0.734 | 0.5961 | 0.514 | 0.456
0.0187 µg/ml | 1 | 1 | 0.909 | 0.719 | 0.615 | 0.539 | 0.509
0.032 µg/ml | 1 | 1 | 0.987 | 0.7818 | 0.635 | 0.518 | 0.488
0.0375 µg/ml | 1 | 1 | 0.961 | 0.798 | 0.673 | 0.576 | 0.531
0.064 µg/ml | 1 | 1 | 0.955 | 0.751 | 0.614 | 0.505 | 0.51
0.075 µg/ml | 1 | 0.983 | 0.901 | 0.75 | 0.593 | 0.508 | 0.461
